Measurements reported in the supplement of paper PMC11417369.
± gives the standard deviation of the averaged measurements. The list shows a part of the results.

tested on: PfAP2-I AP2 domain 3 (GST-tagged); assay: gcPBM binding intensity (ln(normalized median fluorescence intensity)); higher = stronger DNA binding
How it was run: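 GST-tagged P. falciparum DNA-binding domains, expressed in E. coli (about 25 μg on average), were applied for 1 h to an Agilent 4 × 180k array of primer-extended double-stranded 36-bp intergenic genomic probes plus negative controls. The binding buffer was 1× PBS with 1% milk, 0.2 mg/ml BSA, 0.5% salmon testes DNA and 0.03% Triton X-100. Bound protein was detected with Alexa488 anti-GST antibody and scanned at 488 nm. Binding intensity is the highest Masliner-normalised natural-log median intensity across replicate spots of either probe orientation.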

Sequence	gcPBM binding intensity (ln)
TACATAACTTTAATCACACACAAACAAACACATACA [CACACA_site6235]	8.09 ± 0.14
AAATATACATATATATGTACATATAAATATATTTTA [XGTACX_site5266]	7.58 ± 0.33
TAGTTTTCTTAAAGATGTACTTATTAAAAATAAACT [XGTACX_site1001]	7.66 ± 0.2
TATAGATAAATTATTTGTACTTATAAAATTATTATA [XGTACX_site2870]	7.42 ± 0.38
AATGATTGATTTTATTGTACGTACTCGGAATATGGT [XGTACX_site4976]	8.02 ± 0.55
GAATTTTAAATAAACATATAAACAGAAAAAAAAAAA [TGCATGCA_negctrl_site149]	8.14 ± 0.76
GTTCGAAGTATAATTTGTACATATAAAATGGTTCCC [XGTACX_site382]	7.64 ± 0.58
ATATGTATTTATATATGTTTGAATTTTTTTTTTTTT [CACACA_negctrl_site5]	7.34 ± 0.31
GAATAAATAAATAAATGTACATATATATTTATTTAT [XGTACX_site243]	7.55 ± 0.35
ATTTGATCAACAAAACGTACACATATTTTCATGTGT [XGTACX_site447]	7.68 ± 0.45
TATCTGTATTTATATACACACATATTCTTTTTACAC [CACACA_site4798]	7.96 ± 0.52
AAAATCACAAAACACACACACACAAAAAAAAAAAAA [CACACA_site1443]	8.01 ± 0.62
CACATATAGTTATATGCACACATCTTACACATATAT [CACACA_site3692]	9.35 ± 0.26
CATGGGCAAATATTCTCACACATAAACATAAACATA [CACACA_site4597]	7.9 ± 0.59
GTTTGAAGAACTATAAATGTATAAATAAAAGTTTAG [TGCATGCA_negctrl_site222]	7.58 ± 0.59
AAAAAAGTAAAAAAAGCACACACGAAAAAAAATAAA [CACACA_site2233]	8.04 ± 0.67
ATGGTGCAACATTATGCACACCGTTAAATAACTAAT [CACACA_site9280]	11.5 ± 0.7
ATATAGTAAAATTATACACACATGAATTTTCCCATG [CACACA_site1770]	7.68 ± 0.87
GGGAATTATGAAAAAAGTACAGAACAAAAGTAAAAG [XGTACX_site2861]	8.27 ± 0.37
CATATATATATATATACACACACACCGTCCGTGTTA [CACACA_site8975]	8.18 ± 0.52
ATTACATGATATATCACACACACATATAAATATATA [CACACA_site2830]	8.19 ± 0.27
TACAAAAATGAAAAAAGTACATATCATTTAATATAA [XGTACX_site8066]	7.63 ± 0.55

Sequence	gcPBM binding intensity (ln)
TTTTTTTTTTTTTTTTGTACTCATAAAAATATATTA [XGTACX_site3458]	8.19 ± 0.79
AAAGTACAATCATAATCACACGTGTCTATTATATAC [CACACA_site8103]	7.61 ± 0.51
TATATTTATTTATATGTATGCATGTCTGTATATGCT [TGCATGCA_site339]	7.54 ± 0.62
CAAAGATAAAATGATGCACACAAAAGGGTGTAATAT [CACACA_site8499]	8.97 ± 0.32
ACATGGTTTACACGTGCATGTGGATGACTGGACATT [TGCATGCA_site640]	8.29 ± 0.91
TGAGAAAATTAAAAGGTGCTCAGAAATTTTATATTA [GTGCAC_site9954]	8.6 ± 0.3
TTTTCTTTTAATATTTTTAATAATTATATTTTGAAA [XGTACX_negctrl_site495]	7.46 ± 0.66
AATACGACAAACAAATGTACAAATAAATATTCGCGT [XGTACX_site6427]	7.83 ± 0.64
AAAAATGTAAAGTGCGTGCACAAAATATTTGGAAAA	10.3 ± 0.26
AAATTACTAATGTGCACACATACTAACGTTTAAATA [CACACA_site3572]	10.02 ± 0.078
TAAAATTTAAAATATACACACAAAAAGTTATTACAA [CACACA_site4080]	7.58 ± 0.57
AAATTATTATGAAATGGAAAATGCATAAATTGTTTT [XGTACX_negctrl_site206]	7.82 ± 0.79
ATTAAATAATAATAATGTACGTATTATATTAATACA [XGTACX_site5439]	7.67 ± 0.15
CTCTTTAAAAATATGGGTACAAAAAAAAAAAAAATA [XGTACX_site6185]	7.9 ± 0.28
ATTCTTTACTCATAAAATTATATTATATAAACTTTT [XGTACX_negctrl_site554]	7.88 ± 0.57
AGGCCCTATGTTGTTACACACATAGAATGATACATC [CACACA_site1266]	7.67 ± 0.7
AAAACAGTGACAACTCGTACTTATATTTTTTTTTGT [XGTACX_site4968]	7.61 ± 0.69
AACTTATTAAGCCCTCCACATTTCTCTACTACAACT [CACACA_negctrl_site1552]	8.12 ± 0.56
TCTATTTTTCTAATTTGTACATAGCTTTGAGTTAGT [XGTACX_site8977]	7.78 ± 0.64
AACTTCTTTTTTATAACACACAAAATATATATACAA [CACACA_site282]	8.15 ± 0.59
AGATAAAATATATACACACACATAAATACGTACAAA [CACACA_site1086]	8.39 ± 0.028
AAAAGAATGAAACATAATAAATTACATTAAAATAAT [CACACA_negctrl_site897]	7.72 ± 0.51

Sequence	gcPBM binding intensity (ln)
GGCATACACAGACACACACACACACCCACATATATA [CACACA_site591]	8.29 ± 0.4
TAATTATCACATTGCACACACATTTCCTTTTACATT [CACACA_site3443]	8.79 ± 0.45
AATAAATAAATAAGTACACACATATATATATATATA [CACACA_site284]	9.27 ± 0.41
ATTTTTTTATTTTGTGCACACACATAAAAATATATA [CACACA_site762]	11.1 ± 0.27
GATTTTCATATTTTTTGTACTTACATTTTTCTATAC [XGTACX_site6002]	8.18 ± 0.53
ATAAAATCTTAATCAACAAACAAACAAAAAAAAAAT [CACACA_negctrl_site1161]	7.72 ± 0.61
TATGTGATATATTTATCACACATTATATATATATAT [CACACA_site5103]	9.05 ± 0.69
TACATTTTTATTTTTACACACATATTTATTTATATA [CACACA_site6609]	7.91 ± 0.45
TATGATGATGAATAACGTACAAAAAAATTAATCACC [XGTACX_site6794]	8.16 ± 0.49
ATTCATTTTAATATGGGTACATAAAAATAAAAAGAA [XGTACX_site2801]	8.09 ± 0.39
AATATTTAATTCAACACACATACATATTTATTAAAA [CACACA_site2342]	7.95 ± 0.24
TAATATGAAAAGTGTACACACGCACAGACAAAAAAA [CACACA_site5594]	8.43 ± 0.56
GCATAAATCAGACACACACACATATATAAATATGTA [CACACA_site7187]	7.78 ± 0.33
TGTTTATTTTTTTTATGTACTTATTTTTTATTGCAT [XGTACX_site719]	8.21 ± 0.18
ATAAATATATGGTTTCATTATATTAAATTCAATTTA [CACACA_negctrl_site213]	7.28 ± 0.54
AGTATAGTTATAAATTGTACATATTATTTATTTTAT [XGTACX_site949]	7.64 ± 0.47
TAAGTCGCCAAAAGGTGTACACATAATGCATTATCA [XGTACX_site8852]	8.83 ± 0.48
ATGGGGAATAATGAATGTACACAAATAAAAAGTTGG [XGTACX_site4015]	8.24 ± 0.63
TAATATCATTTAGACACACACTCTTACAATCTGTAA [CACACA_site2590]	7.51 ± 0.64
AATCATTTATGGAAAGCATGCTAAATTAGAGTATAC [TGCATGCA_site172]	7.82 ± 0.88
ATCTAAACCTTTTGAGCACACATATATATATATATA [CACACA_site8526]	9.51 ± 0.49
TAAAAATAAAAATAACGTACATACATACTTATATAT [XGTACX_site3745]	7.5 ± 0.16

Sequence	gcPBM binding intensity (ln)
TAATTTTTTTAAAACACACAAATATGTAAATATGTA [CACACA_site7769]	7.43 ± 0.45
ATTTTTGTGACTAAGACATGCATAAGAGTAAAGAAA [TGCATGCA_site619]	8.46 ± 0.75
ACATATATTATATAACGTACATAACACTATTTCCTT [XGTACX_site6938]	7.95 ± 0.54
TTTTTTTTTTGTAATTGTACTTTTTTAATACTTCTA [XGTACX_site4195]	7.74 ± 0.82
TATATATATATATTCACACATAAATATATGCACCCA [CACACA_site4263]	11.1 ± 0.68
TATACATATATATACACACACATATATATATATATA [CACACA_site4]	9.26 ± 0.52
TCATACCTACATAAAAAAAGGGAAACAAAATGTCAT [XGTACX_negctrl_site34]	7.57 ± 0.79
AATAAATATAAATACACACCCATATATATATATATA [CACACA_site5436]	9.46 ± 0.56
ACCAATAAATATTTGGTGCATACATATATATATATA	10.31 ± 0.064
TTAAAAAAAAAAAAAAGTACACACTTATAAAATATT [XGTACX_site1630]	8.055 ± 0.021
CTCCACAAACAAATCGCACACCCAACCCAACATATA [CACACA_site2650]	8.41 ± 0.18
TATTATAATGACTATAGTACATAATATTATTTATAT [XGTACX_site1977]	7.67 ± 0.34
ATAGAACTGAATAAATCTATAAATAAATATATATAT [GTGCAC_negctrl_site604]	8.835 ± 0.007
TTTTTTAAAACTTCAAAAAGAGCACTTGAATTTTTT [GTGCAC_negctrl_site455]	7.9 ± 0.37
ACATATACATTTATATGTACTCATTTATCTTATGTA [XGTACX_site6594]	7.71 ± 0.42
AAATATTACATACACGCACACATTAATATATTTAAA [CACACA_site2603]	8.32 ± 0.38
AACTAAATTTATAATTGTACATTAAAATATGTATTA [XGTACX_site479]	7.59 ± 0.4
ACCTACACAAGCATTAAACACACAAAAGGGATACTT [CACACA_site8273]	7.97 ± 0.69
ACCTAATTTTTATATTGTACATAATATAATATATAT [XGTACX_site1715]	8 ± 0.42
ACAAGAACAGAACGTACACACACATATATATATATA [CACACA_site9143]	9.34 ± 0.35
TTTTACATATATATATGTACGAAAATGAAAAGGTCA [XGTACX_site5576]	8.43 ± 0.63
TATTATAATTTTATATGTACACATATATAAATATAT [XGTACX_site4054]	7.61 ± 0.28
